The values below come from publication PMC13541613.

The list shows a part of the results, in another mix than the full data. At the low end of the ranking the order means little.

In the experiment the target is ZNF721 DBD1 (UniProt Q8TF20-2). Briefly: HT-SELEX. The note with it: 20 mM HEPES pH 7, 140 mM KCl, 5 mM NaCl, 1 mM K2HPO4, 2 mM MgSO4, 100 uM EGTA, ZnSO4, 0.1% Tween20; room temperature, 1 h; high values mean tight binding; double strand, one strand shown.
Consider GAAACACTGC, for which the binding signal (relative 10-mer count) came out at 0.000596.

CCGAAAACAG: the binding signal (relative 10-mer count) was 0.000596.

The sequence ACAAAGCAGT had a binding signal (relative 10-mer count) of 0.000505.

Take CGACCCACCC: the binding signal (relative 10-mer count) was found to be 0.00477.

The sequence AAAAAACAGG returned a binding signal (relative 10-mer count) of 0.000642.

With AAAAACAGAG, the binding signal (relative 10-mer count) amounted to 0.000229.

For AGCATACCCA, the binding signal (relative 10-mer count) was found to be 0.0246.

As to CGCACCCCCC, the binding signal (relative 10-mer count) is 0.00463.

As for CTGTTTTTTC, the binding signal (relative 10-mer count) came to 0.000321.

CAGCATATCC registered a binding signal (relative 10-mer count) of 0.000459.

CCAAAAACAG came in with a binding signal (relative 10-mer count) of 0.00055.

Sequence CCGCCCTCCC gave a binding signal (relative 10-mer count) of 0.00642.

Turning to AACAAAGCAG, the binding signal (relative 10-mer count) came out at 0.00055.

AAGCAGTGTA registered a binding signal (relative 10-mer count) of 0.000688.

The sequence AAAACAGCGT displayed a binding signal (relative 10-mer count) of 0.00055.

CCACCACCAC: the binding signal (relative 10-mer count) was found to be 0.00688.

AAAAAAAGAA returned a binding signal (relative 10-mer count) of 0.00867.

CCCTCGCCCC returned a binding signal (relative 10-mer count) of 0.00702.

Regarding CCACCGCCCA, the binding signal (relative 10-mer count) was 0.00477.

With AAAAAAACAG, the binding signal (relative 10-mer count) came to 0.00078.

AAACAGCATA: the binding signal (relative 10-mer count) came out at 0.000871.

Sequence ACGCTGTTTC gave a binding signal (relative 10-mer count) of 0.000459.

Consider CCCCCTCCCG, for which the binding signal (relative 10-mer count) was 0.00573.

Take AACAGTGTTG: the binding signal (relative 10-mer count) turned out to be 0.000688.

Consider GAAACGCTGC, for which the binding signal (relative 10-mer count) worked out at 0.000183.

CAGTGTTTCC showed a binding signal (relative 10-mer count) of 0.000229.

The sequence AAAGCAGTGT showed a binding signal (relative 10-mer count) of 0.000505.

The sequence AACAGTGTAT had a binding signal (relative 10-mer count) of 0.000413.

In turn, ACAGCATACC yielded a binding signal (relative 10-mer count) of 0.000688.

Turning to AAAAACAGTG, the binding signal (relative 10-mer count) amounted to 0.000826.

As to CCTCGCCCCC, the binding signal (relative 10-mer count) was 0.00592.

The sequence ACACTGCTTG registered a binding signal (relative 10-mer count) of 0.000826.

Consider AACAGCATGC, for which the binding signal (relative 10-mer count) came out at 0.000596.

The sequence AAAACTAGCA had a binding signal (relative 10-mer count) of 0.000367.

AAACAGTGTA gave a binding signal (relative 10-mer count) of 0.000413.

In turn, ACCCACCCCT came in with a binding signal (relative 10-mer count) of 0.00541.

Consider AGGATACACT, for which the binding signal (relative 10-mer count) was 0.0907.

For the sequence AACAGCATAC, the binding signal (relative 10-mer count) came out at 0.000963.
